Experimental findings from the RNAGym collection of RNA variant scans (doi:10.7554/elife.90254) are described below.

Read counts are not given, so values of variants with three or more changes are uncertain.

The labels stand for the following.
B1: LINE1-mini (parent)
chain: GGCAGAGCUCAACACAGCGUGGCAAAGUGGCUGUGGCUAGACUGCC

The variants in this data set derive from B1. As to the kind of experiment: self-cleavage, relative activity (ratio to wild type); higher = more cleavage; in vitro, sequencing; the parent is a self-cleaving ribozyme.
Take G5U A24C U34A G36U: the self-cleavage is 0.12.

G5U A11U A39C: the self-cleavage was 0.02.

G5U A25U G27C: the self-cleavage was found to be 0.01.

Take G5U A12C A14G C31G: the self-cleavage came to 0.03.

On to G5U C10A C15A, for which the self-cleavage is 0.05.

For G5C U9G C37U, the self-cleavage is 0.05.

G5U A11U A12C U20A C46U: the self-cleavage was determined as 0.

Take G5U A14G C15A C45A: the self-cleavage amounted to 0.

Consider G5U C10A C15U G19A, for which the self-cleavage was 0.03.

Consider G5U A14C G40A, for which the self-cleavage turned out to be 0.08.

Regarding G5U A6C A12C G19U C23G G27A, the self-cleavage is 0.02.

In the case of G5U C8A A11G A14G, the self-cleavage was determined as 0.03.

G5U A11G C15U A16U: the self-cleavage was 0.08.

For G5U C10A C15A C45A, the self-cleavage was 0.05.

On to G5U C8U G27C U34A, for which the self-cleavage was 0.09.

G5U A12C C23A: the self-cleavage is 0.02.

As for G5U A6C A11C C13U C18G A41U G44U, the self-cleavage stood at 0.

On to G5C G22C G35U, for which the self-cleavage was determined as 0.05.

G5C G7U C23A G35C: the self-cleavage is 0.53.

For the variant G5C G7C G29A G36U, the self-cleavage stood at 0.06.

Turning to G5C G17C A26G, the self-cleavage was 0.03.

Take G5C G21A A24U G35A C37A: the self-cleavage was 0.04.

In the case of G5C G35U U43A, the self-cleavage turned out to be 0.03.

Take G5U C8U C15G A39C: the self-cleavage amounted to 0.22.

On to G5U C10A G27U G44C, for which the self-cleavage is 0.04.

As for G5C G7U U38G C42A, the self-cleavage was 0.01.

G5U C8G C18A G21U C42A: the self-cleavage came out at 0.13.

With G5U A6G G7C C15U, the self-cleavage stood at 0.08.

For G5U A11C A24C G27C C37U, the self-cleavage was determined as 0.01.

For the variant G5U C8A C13G A14U G17U G21U A41G, the self-cleavage amounted to 0.02.

As to G5U A6U C15A G35C, the self-cleavage was 0.02.

Consider G5C G7C A26U, for which the self-cleavage worked out at 0.03.

Turning to G5U A26G G35U A41U, the self-cleavage amounted to 0.12.

Turning to G5U A6U C15U U34C, the self-cleavage amounted to 0.01.

Consider G5C G22U A26U G29U C46U, for which the self-cleavage came out at 0.05.

Regarding G5U C8G G17C U20A C23U A39G, the self-cleavage amounted to 0.04.

With G5U C8G G30U U34C G36C C46G, the self-cleavage is 0.02.

For the variant G5U A12C C13U A14G, the self-cleavage stood at 0.02.

In the case of G5U A25G G29U U34G, the self-cleavage was 0.

For G5C G27C C42U C45U, the self-cleavage came out at 0.17.

For G5C U9C U43A, the self-cleavage is 0.03.

As for G5U A26C C46U, the self-cleavage was 0.03.

On to G5U A25C G36A, for which the self-cleavage was 0.02.

On to G5U A16G C23U G35U, for which the self-cleavage worked out at 0.06.

With G5U A24U C31U, the self-cleavage came to 0.08.

Take G5U A16C U34G: the self-cleavage stood at 0.01.

On to G5C G7C C46U, for which the self-cleavage turned out to be 0.08.

For the variant G5U C10A A26G, the self-cleavage is 0.03.

For the variant G5C G17C C31U, the self-cleavage came to 0.01.

As for G5U A16C A26U G29C G35U, the self-cleavage is 0.01.

Regarding G5C G33C A39C U43A, the self-cleavage worked out at 0.05.

G5C G19U U32C G44U C46A: the self-cleavage is 0.14.

Turning to G5C G30A A39G, the self-cleavage was 0.02.

Regarding G5C U9C C15U, the self-cleavage was determined as 0.05.

As to G5U A12U C18G A39G, the self-cleavage came out at 0.03.

Regarding G5U A11U A14U, the self-cleavage was 0.05.

G5U C10G C15A: the self-cleavage came out at 0.02.

Turning to G5C U9A G21C G33U G40U, the self-cleavage was determined as 0.08.

Consider G5C G17C A25U U43A, for which the self-cleavage was determined as 0.03.

As to G5U A11C A14U A16C C45A, the self-cleavage came out at 0.03.

In the case of G5U C8A G21U G29U, the self-cleavage was found to be 0.07.

On to G5U C10A G17U G35U, for which the self-cleavage is 0.06.

Consider G5C G17A C31G G36C A41U C45A, for which the self-cleavage stood at 0.06.

For the variant G5C U34G A39C C42A, the self-cleavage amounted to 0.03.

G5U C10A C46G: the self-cleavage was 0.01.

As to G5U C8U U9A C46U, the self-cleavage worked out at 0.55.

On to G5U A16U G22U, for which the self-cleavage stood at 0.05.

For G5U C8A C10G, the self-cleavage came out at 0.02.

G5C U32C U34A: the self-cleavage is 0.

For the variant G5U A6G A14U A26U, the self-cleavage came out at 0.03.

Take G5U A11C C31A G35C A39U: the self-cleavage was 0.

Consider G5U A6G C18G U28G A39G C45A, for which the self-cleavage turned out to be 0.02.

As for G5U A16U C23U G35A C37G, the self-cleavage came to 0.04.

For G5U C8U G19A A26G, the self-cleavage was found to be 0.18.

As to G5U A6C A12G, the self-cleavage came to 0.04.

In the case of G5C G19C G22C C31A, the self-cleavage stood at 0.01.

On to G5U A14C G17C G36C, for which the self-cleavage is 0.05.

As to G5U C8G A25U G30A C31U A41U, the self-cleavage is 0.14.

For the variant G5U A14G U32G A39U, the self-cleavage came to 0.02.

For G5C U9G A11G C13A C37A A41G, the self-cleavage was found to be 0.01.

In the case of G5U C8G A11G G33U G36C U38G A39G, the self-cleavage was 0.

For the variant G5C G29U U43G, the self-cleavage is 0.1.

Regarding G5U C10U A41U C45G, the self-cleavage is 0.05.

On to G5U C8U C15A U38A, for which the self-cleavage worked out at 0.17.

For the variant G5C G30A C42A, the self-cleavage is 0.02.

Regarding G5C G7C C15U G36A, the self-cleavage was 0.07.

G5U A14U A24U A41G: the self-cleavage was found to be 0.04.

Consider G5U C10G G22U U34G G44U, for which the self-cleavage worked out at 0.01.

On to G5C U43G C46A, for which the self-cleavage was 0.02.

Consider G5U C10G A12G G21A G27U C45U, for which the self-cleavage was 0.

As for G5U C10A U20C A26C C42U, the self-cleavage was determined as 0.

G5C U9C A25U A26G G27U: the self-cleavage turned out to be 0.03.

G5C G22A C37G A41G: the self-cleavage was determined as 0.03.

Consider G5C G19A G27C U28G G29C G33A G35U C42U, for which the self-cleavage was 0.01.

For G5U A14G A24U, the self-cleavage came to 0.11.

As to G5C G29U U38A, the self-cleavage came to 0.11.

Take G5C G27C A39C: the self-cleavage was determined as 0.05.

As for G5U C8A C46U, the self-cleavage was 0.26.

For G5U A25U A26G C37A C45U C46U, the self-cleavage was 0.03.

For G5U A14G C37U C45U, the self-cleavage is 0.03.

Regarding G5C G7U C15G G21A U38G C45A, the self-cleavage is 0.01.

For the variant G5U C10A A11G G40U C42A, the self-cleavage was found to be 0.01.

Regarding G5C G35A G36A C37A, the self-cleavage stood at 0.05.

Consider G5U C10A C23U U32G, for which the self-cleavage was determined as 0.07.

Consider G5C G19U U43C, for which the self-cleavage is 0.01.

As for G5C G29U G44A C45G C46A, the self-cleavage was found to be 0.02.

Regarding G5U A12G G35A, the self-cleavage amounted to 0.04.

Regarding G5U A6G A16U C18G, the self-cleavage was 0.03.

Consider G5U C10U G17A G22A G35U, for which the self-cleavage came to 0.02.

Take G5U A26G U34C: the self-cleavage is 0.05.

In the case of G5U A11C G19A G29U, the self-cleavage came to 0.03.

G5U C8U C10A: the self-cleavage was found to be 0.01.

Regarding G5C U34A C42G C46G, the self-cleavage came out at 0.02.

With G5U A24U G40A, the self-cleavage stood at 0.06.

G5U C8G C13G: the self-cleavage was determined as 0.03.

With G5U C10A G17A C23A U32A, the self-cleavage stood at 0.

On to G5C G17C U20C U32C U43G, for which the self-cleavage came out at 0.02.

In the case of G5U A25C U32A G33U, the self-cleavage is 0.

Turning to G5U A24U U32A, the self-cleavage came to 0.09.

For the variant G5U A26G U28G U38C, the self-cleavage was determined as 0.06.

Take G5U C8G A11U G33A: the self-cleavage came out at 0.03.

As for G5C G19A U28C G33C, the self-cleavage was 0.07.

Take G5U A16U A26G: the self-cleavage stood at 0.01.

Consider G5U C8A C15A C45A, for which the self-cleavage was determined as 0.4.

On to G5U A12G U34G, for which the self-cleavage is 0.05.

For the variant G5C G17A G21U G29C U32C, the self-cleavage stood at 0.02.

As to G5C U9G G21C, the self-cleavage worked out at 0.03.

Take G5C U9A C23G A39G C45G: the self-cleavage was determined as 0.02.

Regarding G5U A24G A41C, the self-cleavage is 0.05.

In the case of G5U A24U A26C U28G U32C C37A, the self-cleavage amounted to 0.03.

For the variant G5C G7U U20C C31A C46A, the self-cleavage stood at 0.02.

As for G5U C10A G19A A24G G40C C42U, the self-cleavage amounted to 0.01.

For G5U C10G G29U, the self-cleavage amounted to 0.02.

Turning to G5C G21C G29A C46U, the self-cleavage was 0.1.

On to G5U C8G G17C G35A G36U, for which the self-cleavage was determined as 0.09.

As for G5U A6C A11C, the self-cleavage came out at 0.01.

With G5U C10U G17A, the self-cleavage was 0.08.

In the case of G5U C10U G17U, the self-cleavage was found to be 0.06.

G5U C8U G21A A24U U38G G40U: the self-cleavage came out at 0.85.

For the variant G5U A14G C42A, the self-cleavage was found to be 0.04.

For G5U A12C U38C U43A, the self-cleavage came to 0.02.

In the case of G5C U9C G21A G36U, the self-cleavage came out at 0.02.

As for G5C U28A G36U, the self-cleavage came out at 0.04.

In the case of G5U C10U C18A G22A, the self-cleavage is 0.76.

Turning to G5U A26C G29C C46A, the self-cleavage was determined as 0.05.

Regarding G5U A6U C13U G21U, the self-cleavage was 0.14.

As to G5C G19C C45G, the self-cleavage was determined as 0.03.

On to G5U C10G U32A C46A, for which the self-cleavage was determined as 0.01.

Turning to G5U C10A C18A G22A G30A C31G, the self-cleavage turned out to be 0.01.

Consider G5C G19A C37A A41U, for which the self-cleavage is 0.08.

With G5C U9G A16C, the self-cleavage is 0.09.

G5U C8G U20G: the self-cleavage came to 0.05.

As to G5U C10U C31U, the self-cleavage worked out at 0.07.

Consider G5U A14U C23U, for which the self-cleavage came out at 0.03.

For the variant G5C G19A U28G, the self-cleavage is 0.01.

Regarding G5U A12G G21U G29U U38G A39U G40C, the self-cleavage was 0.

Take G5C G7U C42G G44C: the self-cleavage stood at 0.07.

With G5U A11C G44U, the self-cleavage was 0.03.

With G5U C8G C37A U43A, the self-cleavage came out at 0.06.

As for G5U A11C A12U G44U, the self-cleavage came to 0.04.

On to G5U A6U G22U, for which the self-cleavage was found to be 0.16.

As to G5U A25C U34A U43C, the self-cleavage was determined as 0.04.

For the variant G5C U9G A14U C23U U32A G35U A39C G40U, the self-cleavage turned out to be 0.03.

For the variant G5U A14C U28G A39C, the self-cleavage was 0.02.

Regarding G5U C8A C10U G33A G40U, the self-cleavage came to 0.05.

On to G5U A12G U20A C46G, for which the self-cleavage was determined as 0.08.

With G5U A16G G27U U34G, the self-cleavage turned out to be 0.01.
